This note sets out measurements from paper PMC6212790.

The list shows a part of the results. At the low end of the ranking, values are background and their order means little.

The target of the test is T1, GST-Rok (full length) (UniProt O34857).
T1 sequence: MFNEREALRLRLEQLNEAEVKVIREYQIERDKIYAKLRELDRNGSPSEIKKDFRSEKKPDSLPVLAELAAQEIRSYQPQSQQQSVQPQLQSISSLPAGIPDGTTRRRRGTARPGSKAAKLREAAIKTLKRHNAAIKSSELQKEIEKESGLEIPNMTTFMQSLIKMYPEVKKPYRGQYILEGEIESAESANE
Nature of the test: protein binding microarray.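 Also: rank score from −0.5 (least bound) to 0.5 (best bound).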 Particulars: Rok is a gene silencer of Bacillus subtilis; high values mean tight binding; most listed sequences are background and not binding sites; double strand, one strand shown.
Sequence GCTTCACC yielded a binding signal of -0.146 E-score. Consider GATCCAAA, for which the binding signal is -0.0512 E-score.

Take GGATACAA: the binding signal was 0.00352 E-score. In the case of GGTAAGAC, the binding signal was -0.193 E-score.

As to CCGTAGTA, the binding signal was found to be 0.257 E-score. AGAACTTC: the binding signal is 0.0745 E-score. As for AGGAATTC, the figure is -0.159 E-score; as for TTACTAAA, 0.32 E-score.

ATCCCAAC: the binding signal was -0.0756 E-score. As for ACCAGGTG, the figure is -0.124 E-score.

AAGCGACG had a binding signal of -0.171 E-score. As for ACACCGCA, the figure is -0.187 E-score. As for CCAGCCTA, the figure is -0.263 E-score.

In turn, AAGAGCCG gave a binding signal of -0.258 E-score. On to ACCGCCTG, for which the binding signal is -0.287 E-score.

CTGACCGC showed a binding signal of -0.241 E-score. As for CTATTTGA, the figure is 0.132 E-score; as for GCGCAGGA, -0.089 E-score; as for ATTCGGTG, 0.0753 E-score. As for CTCCGTTA, the figure is 0.0963 E-score.

CTAGCAGC: the binding signal is -0.136 E-score.

Sequence CCTCCACC came in with a binding signal of -0.401 E-score.

AACACCTG registered a binding signal of 0.00454 E-score. ATTGAATC gave a binding signal of 0.0739 E-score. The sequence AGTACTTC displayed a binding signal of 0.189 E-score.

GTATTGAA had a binding signal of 0.0952 E-score. The sequence CGTCGAAG gave a binding signal of -0.0689 E-score. As for AAGCCATC, the binding signal was -0.269 E-score. As for GCCCCCCA, the figure is -0.471 E-score. The sequence AGGCTCAT had a binding signal of -0.25 E-score. As for ACTAAATA, the figure is 0.3 E-score; as for AATCTGAA, -0.0418 E-score. In the case of ACCTAAGC, the binding signal is 0.0895 E-score. On to CTGCTAAG, for which the binding signal is -0.125 E-score.

With GATTTCCA, the binding signal was found to be 0.0352 E-score. As for AGCTCAAC, the figure is 0.0145 E-score; as for AACCGTTG, -0.0339 E-score. Take TAGTGATA: the binding signal amounted to 0.331 E-score. The sequence CGGGGAAG registered a binding signal of -0.361 E-score. As for CCACGGCA, the figure is -0.123 E-score; as for TCTCCACA, -0.0759 E-score; as for AGCGTGAA, -0.0805 E-score.

In turn, AGATAACC returned a binding signal of 0.084 E-score. As for ATGATGAA, the figure is 0.0926 E-score. As for CAACACTG, the figure is -0.0392 E-score. As for CCACTAGG, the figure is -0.114 E-score. In turn, CTTATACA registered a binding signal of 0.283 E-score. Regarding AACATATC, the binding signal amounted to 0.284 E-score.

AGGACCCT had a binding signal of -0.307 E-score.

As to CGGTTGAG, the binding signal is -0.0643 E-score. As for ACGCAGTA, the figure is 0.125 E-score.

For AGATCACA, the binding signal worked out at 0.119 E-score. As for CCCACCGA, the figure is -0.166 E-score; as for AAGATTTA, 0.168 E-score.

CATGTGAA yielded a binding signal of -0.1 E-score. As for ATCAATGC, the figure is 0.0135 E-score; as for AAGAAGGG, -0.289 E-score. The sequence ATTTGATG returned a binding signal of -0.00991 E-score.

AAACGAGG had a binding signal of -0.0595 E-score. As for CTTGGCGA, the figure is -0.149 E-score; as for GCACGGTA, 0.255 E-score. In turn, CCCTGTAC registered a binding signal of -0.195 E-score. Sequence GATCAAAC had a binding signal of -0.114 E-score. As for ATAGGTAG, the figure is 0.41 E-score; as for CTGTTCGC, -0.0909 E-score.

For AGCGACCA, the binding signal was -0.111 E-score. Sequence CCAAATCA showed a binding signal of -0.0903 E-score. As for ACCGTACC, the figure is -0.0344 E-score. As for GTCAGCGA, the figure is -0.0654 E-score.

As for CCTACAAA, the binding signal came out at 0.139 E-score. As for AACAATCT, the figure is 0.0279 E-score; as for AAAACACA, 0.0481 E-score; as for ACTGCCCA, -0.0313 E-score. In the case of ATTGGCCA, the binding signal is -0.011 E-score. In turn, CAATCGAA showed a binding signal of -0.171 E-score.

In turn, AACGGCTC displayed a binding signal of -0.171 E-score. Turning to CTGCCGCC, the binding signal was -0.244 E-score. As for ACATTGAT, the figure is 0.155 E-score; as for ATGTAAAC, 0.0692 E-score; as for TATATAAA, 0.399 E-score.

Consider AAATATGT, for which the binding signal stood at 0.338 E-score.

Take GATCAAGC: the binding signal was -0.204 E-score. With ACAGTCGC, the binding signal is -0.184 E-score.

In the case of CAATTTTC, the binding signal worked out at 0.0141 E-score. As for ACTGCGGC, the figure is -0.209 E-score; as for AAGACGGG, 0.00471 E-score.

AAGGACCA registered a binding signal of -0.0732 E-score. As for CTTAGTCC, the figure is -0.0248 E-score; as for ATTTCTAA, 0.303 E-score.

Sequence TATTTGCA displayed a binding signal of 0.225 E-score. As for CAATGACA, the figure is 0.12 E-score. As for CAGTTTTC, the figure is 0.0134 E-score; as for AACTTTCA, 0.223 E-score.

TTCTGAAA had a binding signal of 0.0783 E-score. On to GGACCTCC, for which the binding signal is -0.281 E-score.

For the sequence ACTCCCTG, the binding signal is -0.258 E-score.

Consider GATCAATA, for which the binding signal was 0.157 E-score. As for AAGCCGAT, the figure is 0.0669 E-score.

TGACGCCA gave a binding signal of -0.132 E-score. As for ATTGGGCC, the figure is -0.257 E-score; as for ACAACGCA, 0.118 E-score. AAGATTAG displayed a binding signal of 0.197 E-score. As for CCAGGAAC, the figure is -0.136 E-score; as for CCAATATC, 0.153 E-score; as for ACTGGCAT, 0.0143 E-score. As for AAAGGTAT, the figure is 0.164 E-score; as for AAGGTCCG, -0.214 E-score; as for ACTTTGGA, -0.0953 E-score. Regarding ACGCCCGC, the binding signal was -0.324 E-score. Sequence ATCCAGGC yielded a binding signal of -0.117 E-score. Take AGCGTTAG: the binding signal is -0.127 E-score.

As to AAGCTTAA, the binding signal stood at 0.0855 E-score. As for CAGGGAGA, the figure is -0.315 E-score. As for GTGCACAC, the figure is 0.00113 E-score; as for GAATGTCA, 0.0732 E-score. As for ATTGAGGG, the figure is -0.115 E-score. The sequence ATCTCGGA showed a binding signal of 0.177 E-score. As for GAGACTCC, the figure is -0.283 E-score; as for ATCACATA, 0.3 E-score. As for GTTCATAA, the binding signal turned out to be 0.00382 E-score. As for AAGCCTCA, the figure is -0.197 E-score. As for GGTTAAGA, the figure is 0.0177 E-score; as for CATTCCGA, 0.0879 E-score; as for CCGGTGAC, -0.0205 E-score. As for AGAATTTG, the figure is 0.252 E-score; as for CCCCCCCG, -0.332 E-score. As for GGCGCTGA, the binding signal was -0.178 E-score. As for GAGGACAA, the binding signal is -0.115 E-score. Take ACTTCGAG: the binding signal was -0.0491 E-score. As for GTTGGGAA, the figure is -0.0644 E-score; as for GAGTTCCA, -0.102 E-score; as for GCAGGCCA, -0.389 E-score. As for GGTCTCAC, the figure is 0.00944 E-score; as for GCAATTAA, 0.19 E-score. As for CCCCGCGA, the figure is -0.312 E-score. The sequence GGGTGCAC came in with a binding signal of -0.252 E-score. For GATACTCC, the binding signal was -0.0433 E-score. As for GGTGGTAC, the figure is -0.0613 E-score.

Consider GCGACGAA, for which the binding signal was -0.014 E-score. Turning to GGCGATCA, the binding signal stood at 0.102 E-score. On to CTGTCCAC, for which the binding signal is -0.116 E-score. As for AATGTCGA, the figure is -0.0305 E-score; as for CACAAGCA, -0.0543 E-score; as for CTAGAGTC, -0.1 E-score. As for CTCGCCCA, the figure is -0.293 E-score; as for AATAAAGA, 0.141 E-score; as for AGTGGTAG, 0.393 E-score.

The sequence CTGATCGA gave a binding signal of -0.0979 E-score. Regarding ACTATATA, the binding signal was determined as 0.453 E-score.

The sequence ATAAGGGC gave a binding signal of -0.166 E-score.

TGCGGCCA: the binding signal is -0.152 E-score.

Sequence AACTTAGT displayed a binding signal of 0.251 E-score.

For AGGGTTCC, the binding signal is -0.246 E-score.

Consider AGGATGTG, for which the binding signal amounted to 0.00402 E-score. Take ACATTTAG: the binding signal was found to be 0.131 E-score. As for CAGATGTA, the figure is 0.248 E-score; as for AAATCAAC, 0.116 E-score; as for AGAGTCAT, 0.0963 E-score. As to GATGCGGC, the binding signal is -0.198 E-score. As for AGGGGCCG, the figure is -0.413 E-score; as for CCCATGTC, -0.112 E-score; as for AGGGGTAA, -0.0832 E-score.

The sequence CCTCAAAA yielded a binding signal of -0.258 E-score. The sequence CATGGTAA returned a binding signal of 0.198 E-score.

The sequence ATTGAAAG showed a binding signal of -0.0678 E-score. For CTTATCCC, the binding signal was -0.268 E-score. With CGCTGAAA, the binding signal was -0.181 E-score.

ACGTACAA gave a binding signal of 0.254 E-score. ACGCGTAC displayed a binding signal of -0.24 E-score. As for ATGAATCA, the figure is 0.129 E-score; as for AAATCATA, 0.221 E-score; as for ATTCAAAC, 0.132 E-score.
